# Results reported in the supplement of paper PMC12423691.
# This is one part of the list. Binding of human transcription factors and regulators to the viral nucleoprotein by AlphaScreen, crude cell-free proteins, amounts not normalised, one pass. Fold of the Venus control; higher = more signal. No active / inactive call. Single-pass screen; sequences are the whole Swiss-Prot entries looked up by name.
# B1: ZNF81, P51508 (protein)
# chain: MPANEDAPQPGEHGSACEVSVSFEDVTVDFSREEWQQLDSTQRRLYQDVMLENYSHLLSVGFEVPKPEVIFKLEQGEGPWTLEGEAPHQSCSDGKFGIKPSQRRISGKSTFHSEMEGEDTRDDSLYSILEELWQDAEQIKRCQEKHNKLLSRTTFLNKKILNTEWDYEYKDFGKFVHPSPNLILSQKRPHKRDSFGKSFKHNLDLHIHNKSNAAKNLDKTIGHGQVFTQNSSYSHHENTHTGVKFCERNQCGKVLSLKHSLSQNVKFPIGEKANTCTEFGKIFTQRSHFFAPQKIHTVEKPHELSKCVNVFTQKPLLSIYLRVHRDEKLYICTKCGKAFIQNSELIMHEKTHTREKPYKCNECGKSFFQVSSLLRHQTTHTGEKLFECSECGKGFSLNSALNIHQKIHTGERHHKCSECGKAFTQKSTLRMHQRIHTGERSYICTQCGQAFIQKAHLIAHQRIHTGEKPYECSDCGKSFPSKSQLQMHKRIHTGEKPYICTECGKAFTNRSNLNTHQKSHTGEKSYICAECGKAFTDRSNFNKHQTIHTGEKPYVCADCGRAFIQKSELITHQRIHTTEKPYKCPDCEKSFSKKPHLKVHQRIHTGEKPYICAECGKAFTDRSNFNKHQTIHTGDKPYKCSDCGKGFTQKSVLSMHRNIHT
# B2: CREB3L3, Q68CJ9 (protein)
# chain: MNTDLAAGKMASAACSMDPIDSFELLDLLFDRQDGILRHVELGEGWGHVKDQQVLPNPDSDDFLSSILGSGDSLPSSPLWSPEGSDSGISEDLPSDPQDTPPRSGPATSPAGCHPAQPGKGPCLSYHPGNSCSTTTPGPVIQVPEASVTIDLEMWSPGGRICAEKPADPVDLSPRCNLTVKDLLLSGSSGDLQQHHLGASYLLRPGAGHCQELVLTEDEKKLLAKEGITLPTQLPLTKYEERVLKKIRRKIRNKQSAQESRKKKKEYIDGLETRMSACTAQNQELQRKVLHLEKQNLSLLEQLKKLQAIVVQSTSKSAQTGTCVAVLLLSFALIILPSISPFGPNKTESPGDFAPVRVFSRTLHNDAASRVAADAVPGSEAPGPRPEADTTREESPGSPGADWGFQDTANLTNSTEELDNATLVLRNATEGLGQVALLDWVAPGPSTGSGRAGLEAAGDEL
# B3: ZNF501, Q96CX3 (protein)
# chain: MNSSQISLRMKHGRVNMQKKPSKCSECGKFFTQRSSLTQHQRIHRGEKPYVCSECGSCFRKQSNLTQHLRIHTGEKPYKCNECEKAFQTKAILVQHLRIHTGEKPYKCNECGKAFCQSPSLIKHQRIHTGEKPYKCTECGKAFSQSICLTRHQRSHSGDKPFKCNECGKAFNQSACLMQHQRIHSGEKPYTCTECGKAFTQNSSLVEHERTHTGEKLYKCSECEKTFRKQAHLSEHYRIHTGEKPYECVGCGKSFRHSSALLRHQRLHAGE
# B4: GTF2H2, Q13888 (protein)
# chain: MDEEPERTKRWEGGYERTWEILKEDESGSLKATIEDILFKAKRKRVFEHHGQVRLGMMRHLYVVVDGSRTMEDQDLKPNRLTCTLKLLEYFVEEYFDQNPISQIGIIVTKSKRAEKLTELSGNPRKHITSLKKAVDMTCHGEPSLYNSLSIAMQTLKHMPGHTSREVLIIFSSLTTCDPSNIYDLIKTLKAAKIRVSVIGLSAEVRVCTVLARETGGTYHVILDESHYKELLTHHVSPPPASSSSECSLIRMGFPQHTIASLSDQDAKPSFSMAHLDGNTEPGLTLGGYFCPQCRAKYCELPVECKICGLTLVSAPHLARSYHHLFPLDAFQEIPLEEYNGERFCYGCQGELKDQHVYVCAVCQNVFCVDCDVFVHDSLHCCPGCIHKIPAPSGV
# B5: RNF4, P78317 (protein)
# chain: MSTRKRRGGAINSRQAQKRTREATSTPEISLEAEPIELVETAGDEIVDLTCESLEPVVVDLTHNDSVVIVDERRRPRRNARRLPQDHADSCVVSSDDEELSRDRDVYVTTHTPRNARDEGATGLRPSGTVSCPICMDGYSEIVQNGRLIVSTECGHVFCSQCLRDSLKNANTCPTCRKKINHKRYHPIYI
# B6: CSRNP2, Q9H175 (protein)
# chain: MDAFTGSGLKRKFDDVDVGSSVSNSDDEISSSDSADSCDSLNPPTTASFTPTSILKRQKQLRRKNVRFDQVTVYYFARRQGFTSVPSQGGSSLGMAQRHNSVRSYTLCEFAQEQEVNHREILREHLKEEKLHAKKMKLTKNGTVESVEADGLTLDDVSDEDIDVENVEVDDYFFLQPLPTKRRRALLRASGVHRIDAEEKQELRAIRLSREECGCDCRLYCDPEACACSQAGIKCQVDRMSFPCGCSRDGCGNMAGRIEFNPIRVRTHYLHTIMKLELESKRQVSRPAAPDEEPSPTASCSLTGAQGSETQDFQEFIAENETAVMHLQSAEELERLKAEEDSSGSSASLDSSIESLGVCILEEPLAVPEELCPGLTAPILIQAQLPPGSSVLCFTENSDHPTASTVNSPSYLNSGPLVYYQVEQRPVLGVKGEPGTEEGSASFPKEKDLNVFSLPVTSLVACSSTDPAALCKSEVGKTPTLEALLPEDCNPEEPENEDFHPSWSPSSLPFRTDNEEGCGMVKTSQQNEDRPPEDSSLELPLAV
# B7: EDF1, O60869 (protein)
# chain: MAESDWDTVTVLRKKGPTAAQAKSKQAILAAQRRGEDVETSKKWAAGQNKQHSITKNTAKLDRETEELHHDRVTLEVGKVIQQGRQSKGLTQKDLATKINEKPQVIADYESGRAIPNNQVLGKIERAIGLKLRGKDIGKPIEKGPRAK
# B8: TAF6L, Q9Y6J9 (protein)
# chain: MSEREERRFVEIPRESVRLMAESTGLELSDEVAALLAEDVCYRLREATQNSSQFMKHTKRRKLTVEDFNRALRWSSVEAVCGYGSQEALPMRPAREGELYFPEDREVNLVELALATNIPKGCAETAVRVHVSYLDGKGNLAPQGSVPSAVSSLTDDLLKYYHQVTRAVLGDDPQLMKVALQDLQTNSKIGALLPYFVYVVSGVKSVSHDLEQLHRLLQVARSLFRNPHLCLGPYVRCLVGSVLYCVLEPLAASINPLNDHWTLRDGAALLLSHIFWTHGDLVSGLYQHILLSLQKILADPVRPLCCHYGAVVGLHALGWKAVERVLYPHLSTYWTNLQAVLDDYSVSNAQVKADGHKVYGAILVAVERLLKMKAQAAEPNRGGPGGRGCRRLDDLPWDSLLFQESSSGGGAEPSFGSGLPLPPGGAGPEDPSLSVTLADIYRELYAFFGDSLATRFGTGQPAPTAPRPPGDKKEPAAAPDSVRKMPQLTASAIVSPHGDESPRGSGGGGPASASGPAASESRPLPRVHRARGAPRQQGPGTGTRDVFQKSRFAPRGAPHFRFIIAGRQAGRRCRGRLFQTAFPAPYGPSPASRYVQKLPMIGRTSRPARRWALSDYSLYLPL
# B9: TCF20, Q9UGU0 (protein)
# chain: MQSFREQSSYHGNQQSYPQEVHGSSRLEEFSPRQAQMFQNFGGTGGSSGSSGSGSGGGRRGAAAAAAAMASETSGHQGYQGFRKEAGDFYYMAGNKDPVTTGTPQPPQRRPSGPVQSYGPPQGSSFGNQYGSEGHVGQFQAQHSGLGGVSHYQQDYTGPFSPGSAQYQQQASSQQQQQQVQQLRQQLYQSHQPLPQATGQPASSSSHLQPMQRPSTLPSSAAGYQLRVGQFGQHYQSSASSSSSSSFPSPQRFSQSGQSYDGSYNVNAGSQYEGHNVGSNAQAYGTQSNYSYQPQSMKNFEQAKIPQGTQQGQQQQQPQQQQHPSQHVMQYTNAATKLPLQSQVGQYNQPEVPVRSPMQFHQNFSPISNPSPAASVVQSPSCSSTPSPLMQTGENLQCGQGSVPMGSRNRILQLMPQLSPTPSMMPSPNSHAAGFKGFGLEGVPEKRLTDPGLSSLSALSTQVANLPNTVQHMLLSDALTPQKKTSKRPSSSKKADSCTNSEGSSQPEEQLKSPMAESLDGGCSSSSEDQGERVRQLSGQSTSSDTTYKGGASEKAGSSPAQGAQNEPPRLNASPAAREEATSPGAKDMPLSSDGNPKVNEKTVGVIVSREAMTGRVEKPGGQDKGSQEDDPAATQRPPSNGGAKETSHASLPQPEPPGGGGSKGNKNGDNNSNHNGEGNGQSGHSAAGPGFTSRTEPSKSPGSLRYSYKDSFGSAVPRNVSGFPQYPTGQEKGDFTGHGERKGRNEKFPSLLQEVLQGYHHHPDRRYSRSTQEHQGMAGSLEGTTRPNVLVSQTNELASRGLLNKSIGSLLENPHWGPWERKSSSTAPEMKQINLTDYPIPRKFEIEPQSSAHEPGGSLSERRSVICDISPLRQIVRDPGAHSLGHMSADTRIGRNDRLNPTLSQSVILPGGLVSMETKLKSQSGQIKEEDFEQSKSQASFNNKKSGDHCHPPSIKHESYRGNASPGAATHDSLSDYGPQDSRPTPMRRVPGRVGGREGMRGRSPSQYHDFAEKLKMSPGRSRGPGGDPHHMNPHMTFSERANRSSLHTPFSPNSETLASAYHANTRAHAYGDPNAGLNSQLHYKRQMYQQQPEEYKDWSSGSAQGVIAAAQHRQEGPRKSPRQQQFLDRVRSPLKNDKDGMMYGPPVGTYHDPSAQEAGRCLMSSDGLPNKGMELKHGSQKLQESCWDLSRQTSPAKSSGPPGMSSQKRYGPPHETDGHGLAEATQSSKPGSVMLRLPGQEDHSSQNPLIMRRRVRSFISPIPSKRQSQDVKNSSTEDKGRLLHSSKEGADKAFNSYAHLSHSQDIKSIPKRDSSKDLPSPDSRNCPAVTLTSPAKTKILPPRKGRGLKLEAIVQKITSPNIRRSASSNSAEAGGDTVTLDDILSLKSGPPEGGSVAVQDADIEKRKGEVASDLVSPANQELHVEKPLPRSSEEWRGSVDDKVKTETHAETVTAGKEPPGAMTSTTSQKPGSNQGRPDGSLGGTAPLIFPDSKNVPPVGILAPEANPKAEEKENDTVTISPKQEGFPPKGYFPSGKKKGRPIGSVNKQKKQQQPPPPPPQPPQIPEGSADGEPKPKKQRQRRERRKPGAQPRKRKTKQAVPIVEPQEPEIKLKYATQPLDKTDAKNKSFYPYIHVVNKCELGAVCTIINAEEEEQTKLVRGRKGQRSLTPPPSSTESKALPASSFMLQGPVVTESSVMGHLVCCLCGKWASYRNMGDLFGPFYPQDYAATLPKNPPPKRATEMQSKVKVRHKSASNGSKTDTEEEEEQQQQQKEQRSLAAHPRFKRRHRSEDCGGGPRSLSRGLPCKKAATEGSSEKTVLDSKPSVPTTSEGGPELELQIPELPLDSNEFWVHEGCILWANGIYLVCGRLYGLQEALEIAREMKCSHCQEAGATLGCYNKGCSFRYHYPCAIDADCLLHEENFSVRCPKHKPPLPCPLPPLQNKTAKGSLSTEQSERG
# Molecular target: nucleoprotein N of Crimean-Congo hemorrhagic fever virus
# Assay: AlphaScreen luminescence signal relative to Venus negative control (fold); higher = stronger binding to CCHFV N
# Protocol: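 AlphaScreen binding of cell-free made, FLAG-GST-tagged human transcription factors and regulators (crude translation products) to biotinylated N protein; signal as fold of the FLAG-GST-Venus control. One pass.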
row,Binder,AlphaScreen luminescence signal
1,B1,2.51
2,B2,1.86
3,B3,2.23
4,B4,2.42
5,B5,2
6,B6,1.63
7,B7,1.26
8,B8,1.77
9,B9,1.67
